Laboratory results published in PubChem BioAssay AID1345082 (National Center for Advancing Translational Sciences (NCATS), 2018).
Hit rate of the full screen: of about 94,000 compounds, about 4,000 (4.3%) were called active. This list was built around the results that the source calls inconclusive (neither active nor inactive); the mix of calls is not that of the screen. The call rests on the fitted dose curve; in most records, active means well fitted inhibition curve with a large enough effect; inconclusive means small, poorly fitted or top-dose-only effect; inactive means no such curve, though single readings can be large or run the other way. Where the call is inconclusive, the potency comes from a doubtful curve fit.

Assay: Cytotoxic Profiling in NIH 3T3 Cell Line of Diverse Libraries Using Quantitative High-Throughput Screening; further: nearly all actives have a fitted effect of over 55% in size
Conditions: NIH 3T3 viability, CellTiter-Glo ATP luminescence, 48-72 h; series mostly up to 96.7 µM
In short: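 Cytotoxicity was measured by CellTiter-Glo ATP luminescence after 48 or 72 h compound exposure at 37 °C. Mouse NIH 3T3 fibroblasts were seeded at 400 cells/well and dosed by 23 nL pin transfer.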
Potency means the concentration at half of the fitted maximal effect; tags describe the fitted curve by direction and shape.

| Structure (SMILES) | Potency |
| --- | --- |
| COc1ccc(-c2cc(N3CCC(NC(=O)COc4ccc(F)cc4)CC3)n[nH]2)cc1 | inconclusive: 39.8 µM [inhibitor, partial curve] |
| COc1cccc([S+](=O)([O-])N2CCCC2C(=O)N2CCC(N3CCCC3=O)CC2)c1 (stereo not given) | inactive |
| O=C(c1csc2nc(-c3ccc(F)cc3)cn12)N1C[C@H]2CC[C@@H](C1)N2 | inconclusive: 79.4 µM [inhibitor, partial curve, poor fit] |
| COc1ccc(C2(C(=O)NCc3cccc(Cl)c3)CCOCC2)cc1 | inactive |
| Cc1ccc(-c2nc(Cn3c(-c4ccccc4)nc(C)c(CCO)c3=O)c(C)o2)cc1 | inconclusive: 17.8 µM [inhibitor, full curve, poor fit] |
| COc1cc(Cl)ccc1OCc1nc2c(n1Cc1ccccc1)C(=O)N(CC1CCOCC1)CCN2 | inconclusive: 50.1 µM [inhibitor, partial curve, poor fit] |
| CC(=O)NC1CCN(c2nccc(Nc3ccccc3Cl)n2)CC1 | inconclusive: 50.1 µM [inhibitor, full curve, poor fit] |
| COc1cccc(-c2ccc(CN3C4CCC3CN(C(C)C)C4)cc2)c1 | inactive |
| O=C(CC1CCCC1)N1CCC2(CC1)CC(CO)N(C(=O)c1ccccc1)C2 (stereo not given) | inconclusive: 50.1 µM [inhibitor, single point] |
| COc1ccc2ccc(OCc3nc(C(=O)N4CCCNC(=O)C4)co3)cc2c1 | inconclusive: 35.5 µM [inhibitor, full curve] |
| CCc1ccccc1CN1CCCC2(Cc3ccccc3CNC2=O)C1 (stereo not given) | inconclusive: 70.8 µM [inhibitor, single point] |
| Cc1cc(C)cc(-c2ccc(CN3CCCC3C(=O)NCc3cccc(F)c3)cc2)c1 (stereo not given) | inconclusive: 44.7 µM [inhibitor, partial curve, poor fit] |
| COc1ccc(N2CC3CCC(C2)N3Cc2ccc(-c3cccnc3)cc2)cc1 | inconclusive: 70.8 µM [inhibitor, single point] |
| COc1ccccc1Oc1c(CCC(=O)NCc2ccccc2)c(C)nn1-c1ccc(F)cc1 | inconclusive: 44.7 µM [inhibitor, partial curve, poor fit] |
| COCCN1C(=O)N(C2Cc3ccccc3C2)C(=O)C12CCN(Cc1ccc(CO)o1)CC2 | inactive |
| CNC(=O)CCn1ncc2cc(OCc3ccccc3-c3ccc(F)c(Cl)c3)ccc21 | active: 79.4 µM |
| O=C(Nc1ccc2c(c1)OCO2)C1CCCN(c2cnn(Cc3ccccc3)c(=O)c2)C1 (stereo not given) | inconclusive: 35.5 µM [inhibitor, partial curve] |
| CS(=O)(=O)N1CCCN(C(=O)Nc2ccccc2)CCNC(=O)CC1c1ccccc1 (stereo not given) | inactive |
| Cc1ccc(NC(=O)N2CCc3c(C(=O)NCCc4ccccn4)cccc32)cc1 | inconclusive: 70.8 µM [inhibitor, single point] |
| O=S(=O)(c1ccccc1)N1CCN(c2ccc3nnc(C4CC4)n3n2)CC1 | inconclusive: 44.7 µM [inhibitor, partial curve, poor fit] |
| Cc1ccc(-n2nc(C)c([C@@H]3C=C[C@@H](NCc4cccc(C#N)c4)C3)c2C)cc1Cl | inconclusive: 44.7 µM [inhibitor, full curve, poor fit] |
| COCCN1CCOC2(CCN([S+](=O)([O-])c3ccccc3C)CC2)C1=O | inconclusive: 112 µM [inhibitor, single point] |

| Structure (SMILES) | Potency |
| --- | --- |
| O=C(C1CCCN1C(=O)c1cccc(Cl)c1)N1CCC(N2Cc3ccccc3C2=O)CC1 (stereo not given) | inactive |
| Cc1ccc(CNC(=O)N2CCC3(CC2)CC(C(=O)N2CCOCC2)N(C)C3)cc1 (stereo not given) | inactive |
| Clc1ccc(-c2cnc([C@@H]3COCCN3C3CCCCC3)[nH]2)cc1 | inconclusive: 56.2 µM [inhibitor, partial curve, poor fit] |
| COc1cc(F)cc(-c2cccc(COc3cnc4c(ccn4CC(=O)O)c3)c2)c1 | inconclusive: 100 µM [inhibitor, single point] |
| COc1ccc(-c2ccc3nc(-c4cc(F)ccc4F)oc3c2)c(OC)c1OC | inconclusive: 50.1 µM [inhibitor, single point] |
| COc1ccccc1C(=O)NC1CCN(c2cc(-c3cccs3)[nH]n2)CC1 | inconclusive: 39.8 µM [inhibitor, partial curve, poor fit] |
| CC(=O)Nc1cccc(-c2cn(C)c(=O)n3cc(CN4CCNC(=O)C4)nc23)c1 | inconclusive: 112 µM [inhibitor, single point] |
| O=C(Nc1ccc2c(N3CCOCC3)ncnc2c1)c1ccco1 | inactive |
| Clc1ccc(-c2cnc([C@@H]3COCCN3Cc3ccccn3)[nH]2)cc1 | inconclusive: 89.1 µM [inhibitor, partial curve] |
| Cc1ccc(CN(C(=O)c2ccco2)c2ccc(CC(=O)N3CCCC3)cc2)cc1 | inconclusive: 50.1 µM [inhibitor, partial curve, poor fit] |
| Cc1ccccc1Cc1nc(-c2nnn3c2COC(c2ccc(Cl)cc2)C3)no1 (stereo not given) | inactive |
| COc1cccc(N2C(=O)NC(=NC3CCCCC3)C23CCN(Cc2cccn2C)C3)c1 (stereo not given) | inactive |
| CCOCCCNC(=O)C1CCCN1Cc1ccc(-c2cncnc2)cc1 (stereo not given) | inactive |
| CC(C)C[C@H](CO)NC(=O)C[C@@H]1c2nc(NC(=O)c3c(F)cccc3F)sc2C[C@@H]2[C@](C)(CO)[C@H](O)CC[C@]21C | inactive |
| CN1Cc2cccn2CC1CNC(=O)Nc1cccc(F)c1 (stereo not given) | inconclusive: 50.1 µM [inhibitor, partial curve, poor fit] |
| C[C@H]1CN(C(=O)Nc2ccc(F)cc2F)C[C@@H]1c1nc(-c2ccccc2)no1 | inconclusive: 50.1 µM [inhibitor, partial curve, poor fit] |
| O=C(C1CCCC1)N1CCC(Cc2noc(C3CCOCC3)n2)C1 (stereo not given) | inactive |
| Cc1ccccc1N1Cc2c(NCc3ccccn3)ncnc2N(C)CC1=O | inactive |
| Cc1ccc(-c2cccc(CN3CCCC(NC(=O)Cc4ccccc4)C3)c2)cc1Cl (stereo not given) | inactive |
| CCCC(=O)N1Cc2ccccc2CC2(CCCCN2Cc2ccncc2)C1 (stereo not given) | inconclusive: 70.8 µM [inhibitor, single point] |
| CN(C(=O)c1cccc(Cl)c1)C1CCCc2ccccc21 (stereo not given) | inconclusive: 56.2 µM [inhibitor, partial curve, poor fit] |
| COc1ccc(C2NC(=O)N(Cc3nc(C4CCCCC4)no3)C3=C2C(=O)OC3)cc1 (stereo not given) | inconclusive: 50.1 µM [inhibitor, single point] |

| Structure (SMILES) | Potency |
| --- | --- |
| COc1cccc(-c2cccc(C(=O)N3CCN(C(=O)c4ccccc4C)CC3)c2)c1 | inconclusive: 50.1 µM [inhibitor, partial curve, poor fit] |
| CCc1noc(-c2cn(C3CCN(C(=O)c4ccc(Cl)s4)C3)nn2)n1 (stereo not given) | inconclusive: 31.6 µM [inhibitor, partial curve, poor fit] |
| CCC(=O)Nc1cccc(C2OC(=O)N(Cc3ccc(C)cc3)C2C(=O)NCCOC)c1 (stereo not given) | inactive |
| CCCC(C)C(=O)N1CCn2nc(C(=O)Nc3ccccc3)cc2C1 (stereo not given) | inactive |
| O=C(c1ccc2nnc(-c3cccc(OC(F)(F)F)c3)n2c1)N1CCCC1 | inconclusive: 39.8 µM [inhibitor, partial curve] |
| COc1ccc(-c2ccc(C(=O)N3CCC(NC(=O)c4ccc(Cl)cc4)CC3)cc2)nn1 | inconclusive: 50.1 µM [inhibitor, single point] |
| O=C(Nc1cnc(-c2ccccc2)nc1)C1CCCC1 | inactive |
| CN1c2cc(C(=O)NCc3nc4ccccc4n3C)ccc2C(=O)N2CCCCCC21 (stereo not given) | inconclusive: 56.2 µM [inhibitor, partial curve, poor fit] |
| Cc1ccccc1CN1Cc2nc(Nc3ccccc3)ccc2OCC1=O | inconclusive: 70.8 µM [inhibitor, partial curve, poor fit] |
| c1ccc2sc(N3CCCN(Cc4cc5n(n4)CCNC5)CC3)nc2c1 | inconclusive: 50.1 µM [inhibitor, partial curve, poor fit] |
| COc1ccc(C(=O)N2CCC3(CC2)NC(=O)N(c2ccccc2Cl)N3)cc1F | inconclusive: 35.5 µM [inhibitor, partial curve] |
| O=C(NCC1CCN(c2cc(-c3ccc(F)cc3)[nH]n2)CC1)c1c[nH]c2ccccc12 | active: 31.6 µM |
| CN1CCN(c2ncnc3c2CN(C2CCC2)C(=O)CN3C)CC1 | inconclusive: 79.4 µM [inhibitor, partial curve, poor fit] |
| O=C(N[C@H](C1CCNCC1)C1CC(O)C1)c1cccc(=O)[nH]1 (stereo not given in full) | inactive |
| O=C([C@@H]1C[C@H](F)CN1C(=O)c1cccc(Br)c1)N1CCCCC1 | inactive |
| O=C(NCc1cccc(C(F)(F)F)c1)c1nc2sccn2c1-c1cccc(C(F)(F)F)c1 | inconclusive: 28.2 µM [inhibitor, full curve] |
| Cc1cc(F)cc(CN2CCc3nc(C(=O)Nc4ccccc4)oc3CC2)c1 | active: 25.1 µM |
| COc1nc2c(cc1CNC(=O)C1(C)CC1)C(=O)N(CCc1ccccn1)C2 | inactive |
| O=C(Nc1ccccc1)NC1CCCN(Cc2ccc(-c3cncnc3)cc2)C1 (stereo not given) | inactive |
| CN(Cc1ccccc1)C(=O)c1cnc2c(c1)N(C(=O)CCc1ccccc1)CCC2 | inconclusive: 39.8 µM [inhibitor, partial curve, poor fit] |
| COc1ccccc1-c1nnc2ccc(C(=O)NCc3cccc(C(F)(F)F)c3)cn12 | inconclusive: 10 µM [inhibitor, full curve, poor fit] |
